Measured values taken from a collection of fitness landscapes (doi:10.1016/j.celrep.2020.107928).
The full ranking holds about 81,000 sequences; the median of “one-hybrid fitness for binding NBS DNA” is about -0.1, and the highest 2% start at about 0.36. The list shows a part of the results.

B1: Caulobacter ParB omega fusion; a variant is named by its letters at X, in order, B8GW30 (parent)
chain: MESVVVGEPGMSEGRRGLGRGLSALLGEVDAAPAQAPGEQLGGSREAPIEILQRNPDQPRRTFREEDLEDLSNSIREKGVLQPILVRPSPDTAGEYQIVAGERAWRAAQRAGLKTVPIMVRELDDLAVLEIGIIENVQRADLNVLEEALSYKVLMEKFERTQENIAQTIGKSXSHVANXMRLLXLPDEVQSYLVSGELTAXHARAIAAAADPVALAKQIIEGGLSVRETEALARKAPNLSAGKSKGGRPPRVKDTDTQALESDLSSVLGLDVSIDHRGSTGTLTITYATLEQLDDLCNRLTRGI

Variants of: B1
Test: one-hybrid fitness for binding NBS DNA (the Noc-binding site; scaled: cognate 1, non-cognate 0); higher = stronger binding
Conditions: with NBS DNA site
In short: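 Bacterial one-hybrid selection in E. coli USO rpoZ- hisB- pyrF- with a HIS3 reporter carrying the site 19 bp from the promoter, screening Caulobacter ParB libraries with four specificity codons randomised (NNS). Cells grew 48 hours at 37°C on M9-minus-histidine plus 0.1 mM IPTG and 5 mM 3-AT. Plasmids before and after selection were Illumina-sequenced, three replicate libraries pooled, and variants under 10 reads dropped. Fitness is the log change in variant-to-wild-type read ratio, rescaled to cognate 1, non-cognate 0.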

Row | Variant | one-hybrid fitness for binding NBS DNA
1 | SKCG | ≤ 0.2
2 | VACG | ≤ 0.2
3 | TKVQ | ≤ 0.2
4 | YRFA | ≤ 0.2
5 | LYFT | ≤ 0.2
6 | VHHE | ≤ 0.2
7 | HGAC | ≤ 0.2
8 | WSWS | ≤ 0.2
9 | FLPK | ≤ 0.2
10 | AWMV | ≤ 0.2
11 | HCAR | ≤ 0.2
12 | TEPW | ≤ 0.2
13 | RDQL | ≤ 0.2
14 | LMPK | ≤ 0.2
15 | HGRL | ≤ 0.2
16 | LGTF | ≤ 0.2
17 | RQSR | 0.474
18 | CTPT | ≤ 0.2
19 | HAWR | ≤ 0.2
20 | HFFG | ≤ 0.2
21 | SAKL | ≤ 0.2
22 | PVQV | ≤ 0.2
23 | TVLV | ≤ 0.2
24 | MFVW | ≤ 0.2

Row | Variant | one-hybrid fitness for binding NBS DNA
25 | NVNC | ≤ 0.2
26 | ETIG | ≤ 0.2
27 | AMSE | ≤ 0.2
28 | TPYV | ≤ 0.2
29 | NPLC | ≤ 0.2
30 | MACL | ≤ 0.2
31 | HPRT | ≤ 0.2
32 | IYGS | ≤ 0.2
33 | NKSV | ≤ 0.2
34 | QRVW | ≤ 0.2
35 | SMTL | ≤ 0.2
36 | FIKS | ≤ 0.2
37 | DIMG | ≤ 0.2
38 | RIWM | ≤ 0.2
39 | ARRN | ≤ 0.2
40 | AERY | ≤ 0.2
41 | QTCC | ≤ 0.2
42 | AFAE | ≤ 0.2
43 | PYSW | ≤ 0.2
44 | AFQF | ≤ 0.2
45 | CTPK | ≤ 0.2
46 | VVHM | ≤ 0.2
47 | AAIF | ≤ 0.2
48 | TYKM | ≤ 0.2

Row | Variant | one-hybrid fitness for binding NBS DNA
49 | YASG | ≤ 0.2
50 | DPDV | ≤ 0.2
51 | HWKR | ≤ 0.2
52 | APSW | ≤ 0.2
53 | KQPV | ≤ 0.2
54 | LSHK | ≤ 0.2
55 | NGAE | ≤ 0.2
56 | LPHL | ≤ 0.2
57 | YAEV | ≤ 0.2
58 | MAIS | ≤ 0.2
59 | HETS | ≤ 0.2
60 | NAGT | ≤ 0.2
61 | VVMS | ≤ 0.2
62 | NTNG | ≤ 0.2
63 | SEAG | ≤ 0.2
64 | TNLA | ≤ 0.2
65 | KMVQ | ≤ 0.2
66 | TAHI | ≤ 0.2
67 | VIGY | ≤ 0.2
68 | TKKY | ≤ 0.2
69 | PSDN | ≤ 0.2
70 | SWNR | ≤ 0.2
71 | KNGV | ≤ 0.2
72 | QPEG | ≤ 0.2

Row | Variant | one-hybrid fitness for binding NBS DNA
73 | AKYM | ≤ 0.2
74 | AVHI | ≤ 0.2
75 | GKRS | ≤ 0.2
76 | YQSC | ≤ 0.2
77 | TVTE | ≤ 0.2
78 | RVDV | ≤ 0.2
79 | ALLF | ≤ 0.2
80 | WNYS | ≤ 0.2
81 | IPMC | ≤ 0.2
82 | LSCA | ≤ 0.2
83 | WSMT | ≤ 0.2
84 | RMDE | ≤ 0.2
85 | PGVY | ≤ 0.2
86 | ERPE | ≤ 0.2
87 | NDKT | ≤ 0.2
88 | LLFL | ≤ 0.2
89 | NKCS | ≤ 0.2
90 | NHKR | 0.202
91 | RQHY | ≤ 0.2
92 | PRGD | ≤ 0.2
93 | VMNG | ≤ 0.2
94 | LLLM | ≤ 0.2
95 | SVEA | ≤ 0.2
96 | RLYD | ≤ 0.2

Row | Variant | one-hybrid fitness for binding NBS DNA
97 | YNGC | ≤ 0.2
98 | FRCC | ≤ 0.2
99 | HWFT | ≤ 0.2
100 | LPCR | ≤ 0.2
101 | GTWG | ≤ 0.2
102 | LNSL | ≤ 0.2
103 | NTMP | ≤ 0.2
104 | AYTH | ≤ 0.2
105 | AVSW | ≤ 0.2
106 | PVAL | ≤ 0.2
107 | SIAV | ≤ 0.2
108 | SGWS | ≤ 0.2
109 | NQGG | ≤ 0.2
110 | HGMV | ≤ 0.2
111 | MDGR | ≤ 0.2
112 | TLCT | ≤ 0.2
113 | KSAT | ≤ 0.2
114 | EDWR | ≤ 0.2
115 | LRHW | ≤ 0.2
116 | NAAR | ≤ 0.2
117 | WRNT | ≤ 0.2
118 | QDHG | ≤ 0.2
119 | SDTS | ≤ 0.2
120 | MEMT | ≤ 0.2

Row | Variant | one-hybrid fitness for binding NBS DNA
121 | PHTY | ≤ 0.2
122 | RDEG | ≤ 0.2
123 | CHSD | ≤ 0.2
124 | VWSG | ≤ 0.2
125 | FALC | ≤ 0.2
126 | WPTG | ≤ 0.2
127 | QAFC | ≤ 0.2
128 | YVQR | ≤ 0.2
129 | HGCL | ≤ 0.2
130 | TEFW | ≤ 0.2
131 | IGCS | ≤ 0.2
132 | WLSE | ≤ 0.2
133 | VRTG | ≤ 0.2
134 | GWGP | ≤ 0.2
135 | WREG | ≤ 0.2
136 | VFYG | ≤ 0.2
137 | WCLT | ≤ 0.2
138 | WRSR | ≤ 0.2
139 | HDKL | ≤ 0.2
140 | SKGC | ≤ 0.2
141 | HTSS | ≤ 0.2
142 | PHCR | ≤ 0.2
143 | MECW | ≤ 0.2
144 | WKHC | ≤ 0.2

Row | Variant | one-hybrid fitness for binding NBS DNA
145 | TCSI | ≤ 0.2
146 | AEGK | ≤ 0.2
147 | QIQY | ≤ 0.2
148 | RSVF | ≤ 0.2
149 | EERR | ≤ 0.2
150 | IFKR | ≤ 0.2
151 | QQVS | 0.33
152 | SEPG | ≤ 0.2
153 | CSMV | ≤ 0.2
154 | RTEN | ≤ 0.2
155 | ANDC | ≤ 0.2
156 | WGCG | ≤ 0.2
157 | LYDV | ≤ 0.2
158 | PHAQ | ≤ 0.2
159 | HVPA | ≤ 0.2
160 | RDSG | ≤ 0.2
161 | YGRN | ≤ 0.2
162 | SFMS | ≤ 0.2
163 | WEST | ≤ 0.2
164 | SRLK | ≤ 0.2
165 | GLVT | ≤ 0.2
166 | MAPY | ≤ 0.2
167 | TAYV | ≤ 0.2
168 | DSCG | ≤ 0.2

Row | Variant | one-hybrid fitness for binding NBS DNA
169 | AMPF | ≤ 0.2
170 | QQHW | ≤ 0.2
171 | HPKK | ≤ 0.2
172 | LEYL | ≤ 0.2
173 | KLWC | ≤ 0.2
174 | FTYR | ≤ 0.2
175 | HSLC | ≤ 0.2
176 | SWAK | ≤ 0.2
177 | PQYA | ≤ 0.2
178 | VFKN | ≤ 0.2
179 | EQLT | ≤ 0.2
180 | LVQG | ≤ 0.2
181 | RCPD | ≤ 0.2
182 | APFS | ≤ 0.2
183 | FFKG | ≤ 0.2
184 | MHYT | ≤ 0.2
185 | SLKK | ≤ 0.2
186 | EFEE | 0.347
187 | VNMP | ≤ 0.2
188 | PPDL | ≤ 0.2
189 | DMPS | ≤ 0.2
190 | GVIY | ≤ 0.2
191 | LEVV | ≤ 0.2
192 | NDDT | ≤ 0.2

Row | Variant | one-hybrid fitness for binding NBS DNA
193 | CAFN | ≤ 0.2
194 | KLHF | ≤ 0.2
195 | VAAR | ≤ 0.2
196 | AAMV | ≤ 0.2
197 | LISR | ≤ 0.2
198 | NNLT | ≤ 0.2
199 | NPFV | ≤ 0.2
200 | EFGR | ≤ 0.2
201 | MSRA | ≤ 0.2
202 | WSST | ≤ 0.2
203 | CWDT | ≤ 0.2
204 | KDTV | ≤ 0.2
205 | HIKG | ≤ 0.2
206 | RFPP | ≤ 0.2
207 | VVPN | ≤ 0.2
208 | TCFR | ≤ 0.2
209 | ETTF | ≤ 0.2
210 | RHMI | ≤ 0.2
211 | HRYW | ≤ 0.2
212 | YNNV | ≤ 0.2
213 | VPAS | ≤ 0.2
214 | RHSC | ≤ 0.2
215 | NLFM | ≤ 0.2
216 | RQNV | ≤ 0.2

Row | Variant | one-hybrid fitness for binding NBS DNA
217 | CQHS | ≤ 0.2
218 | CGQT | ≤ 0.2
219 | LKCR | ≤ 0.2
220 | NLSI | ≤ 0.2
221 | KPRS | ≤ 0.2
222 | RHPG | ≤ 0.2
223 | PYRQ | ≤ 0.2
224 | VWMS | ≤ 0.2
225 | SQEL | ≤ 0.2
226 | QARS | 0.644
227 | KGFG | ≤ 0.2
228 | YATC | ≤ 0.2
229 | LDQS | ≤ 0.2
230 | FAAH | ≤ 0.2
231 | PQWC | ≤ 0.2
232 | RRGV | 0.311
233 | PCER | ≤ 0.2
234 | WRVQ | ≤ 0.2
235 | TPTM | ≤ 0.2
236 | NNIC | ≤ 0.2
237 | QAAH | ≤ 0.2
238 | AWDR | ≤ 0.2
239 | CKSN | ≤ 0.2
240 | VWDR | ≤ 0.2

Row | Variant | one-hybrid fitness for binding NBS DNA
241 | AQMI | ≤ 0.2
242 | PVMW | ≤ 0.2
243 | AGCY | ≤ 0.2
244 | ASTI | ≤ 0.2
245 | RHTP | ≤ 0.2
246 | WCIR | ≤ 0.2
247 | TPRE | ≤ 0.2
248 | HIWS | ≤ 0.2
249 | KLSA | ≤ 0.2
250 | RQKD | ≤ 0.2
251 | PPKI | ≤ 0.2
252 | MRTG | ≤ 0.2
253 | KQRK | ≤ 0.2
254 | QDAW | ≤ 0.2
255 | ACYF | ≤ 0.2
256 | VVQA | ≤ 0.2
257 | QKDR | 0.425
258 | RNDM | ≤ 0.2
259 | HASV | ≤ 0.2
260 | CSTW | ≤ 0.2
261 | WDTT | ≤ 0.2
262 | MAMS | ≤ 0.2
263 | YNTI | ≤ 0.2
264 | FMPF | ≤ 0.2

Row | Variant | one-hybrid fitness for binding NBS DNA
265 | RIMV | ≤ 0.2
266 | PMRM | ≤ 0.2
267 | RMLE | ≤ 0.2
268 | YNKR | ≤ 0.2
269 | ASYS | ≤ 0.2
270 | RMYF | ≤ 0.2
271 | TVDT | ≤ 0.2
272 | YGVG | ≤ 0.2
273 | WTDS | ≤ 0.2
274 | RIEW | ≤ 0.2
275 | RSQY | ≤ 0.2
276 | QQYF | ≤ 0.2
277 | HLIW | ≤ 0.2
278 | LKQT | ≤ 0.2
279 | SERF | ≤ 0.2
280 | VYLS | ≤ 0.2
281 | IPMR | ≤ 0.2
282 | HGLC | ≤ 0.2
283 | KADL | ≤ 0.2
284 | QKMA | ≤ 0.2
285 | KRTH | 0.245
286 | CYEL | ≤ 0.2
287 | TPAA | ≤ 0.2
288 | YLHT | ≤ 0.2

Row | Variant | one-hybrid fitness for binding NBS DNA
289 | NELA | ≤ 0.2
290 | PIVH | ≤ 0.2
291 | CPNR | ≤ 0.2
292 | SWTR | ≤ 0.2
293 | CKKG | ≤ 0.2
294 | RRKY | 0.79
295 | RQER | 0.204
296 | WQEG | ≤ 0.2
297 | QRFM | 0.22
298 | CTSV | ≤ 0.2
299 | INDT | ≤ 0.2
300 | RNYI | ≤ 0.2
301 | NNLY | ≤ 0.2
302 | YDNW | ≤ 0.2
303 | HRVW | ≤ 0.2
304 | TFET | ≤ 0.2
305 | PSYA | ≤ 0.2
306 | GEET | ≤ 0.2
